# ± gives the standard error. This sample is rich in variants without activity.
# B1: glmS ribozyme (parent)
# chain: AUAAAAGCGCCAGAACUACAGAAAUGUAGUUGACGAGGAGGAGGUUUAUCGAAUUUUCGGCGGAUGCCUCCAAA
# Legend:
# Conditions in all cases: with glucosamine-6-phosphate
# glucosamine-6-phosphate [1] = variants of: B1; assay: self-cleavage kobs at 640 uM GlcN6P; higher = faster cleavage; RNA array
# Method in brief: (§1)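 Over ~14 h at 37 °C, tiles were imaged as glucosamine-6-phosphate (40 μM to 10 mM) in HEPES/KCl/Mg(OAc)2 buffer flowed across sequenced MiSeq chips. The chips carried barcoded ribozyme variants transcribed in situ by E. coli RNA polymerase and tracked with a hybridised Cy3 probe. After normalisation to baseline and to non-cleaving reference variants, one- or two-exponential decay fits of per-tile medians gave kobs. kcat and KM followed from weighted Michaelis–Menten fits across concentrations.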
# glucosamine-6-phosphate [2] = variants of: B1; assay: self-cleavage kobs at 160 uM GlcN6P; higher = faster cleavage; RNA array
# Method in brief: as §1
# glucosamine-6-phosphate [3] = variants of: B1; assay: self-cleavage kobs at 10000 uM GlcN6P; higher = faster cleavage; RNA array
# Method in brief: as §1
# glucosamine-6-phosphate [4] = variants of: B1; assay: self-cleavage kobs at 2500 uM GlcN6P; higher = faster cleavage; RNA array
# Method in brief: as §1
variant,measurement,setting,value
U30C G37C,self-cleavage kobs at 640 uM GlcN6P,glucosamine-6-phosphate [1],< 1e-05 s⁻¹
same,self-cleavage kobs at 160 uM GlcN6P,glucosamine-6-phosphate [2],< 1e-05 s⁻¹
same,self-cleavage kobs at 10000 uM GlcN6P,glucosamine-6-phosphate [3],< 1e-05 s⁻¹
A15U A33G G51C U55G G60U,self-cleavage kobs at 640 uM GlcN6P,glucosamine-6-phosphate [1],< 1e-05 s⁻¹
same,self-cleavage kobs at 160 uM GlcN6P,glucosamine-6-phosphate [2],< 1e-05 s⁻¹
A15C G40A A42C C50G,self-cleavage kobs at 640 uM GlcN6P,glucosamine-6-phosphate [1],< 1e-05 s⁻¹
same,self-cleavage kobs at 2500 uM GlcN6P,glucosamine-6-phosphate [4],< 1e-05 s⁻¹
U30C C68U,self-cleavage kobs at 640 uM GlcN6P,glucosamine-6-phosphate [1],4.07e-05 ± 6.8e-06 s⁻¹
same,self-cleavage kobs at 2500 uM GlcN6P,glucosamine-6-phosphate [4],9.82e-05 ± 1.1e-05 s⁻¹
same,self-cleavage kobs at 10000 uM GlcN6P,glucosamine-6-phosphate [3],0.000111 ± 8.5e-06 s⁻¹
A14G A36G A42U,self-cleavage kobs at 640 uM GlcN6P,glucosamine-6-phosphate [1],< 1e-05 s⁻¹
same,self-cleavage kobs at 2500 uM GlcN6P,glucosamine-6-phosphate [4],< 1e-05 s⁻¹
same,self-cleavage kobs at 10000 uM GlcN6P,glucosamine-6-phosphate [3],< 1e-05 s⁻¹
A28G C70A,self-cleavage kobs at 640 uM GlcN6P,glucosamine-6-phosphate [1],6.33e-05 ± 2.1e-05 s⁻¹
same,self-cleavage kobs at 160 uM GlcN6P,glucosamine-6-phosphate [2],0.000126 ± 3.7e-05 s⁻¹
same,self-cleavage kobs at 2500 uM GlcN6P,glucosamine-6-phosphate [4],0.000497 ± 0.00012 s⁻¹
A14U G40U G60A,self-cleavage kobs at 640 uM GlcN6P,glucosamine-6-phosphate [1],< 1e-05 s⁻¹
same,self-cleavage kobs at 2500 uM GlcN6P,glucosamine-6-phosphate [4],< 1e-05 s⁻¹
C16U A33G A39C A42G,self-cleavage kobs at 640 uM GlcN6P,glucosamine-6-phosphate [1],< 1e-05 s⁻¹
G29U G32C A36G,self-cleavage kobs at 640 uM GlcN6P,glucosamine-6-phosphate [1],< 1e-05 s⁻¹
same,self-cleavage kobs at 160 uM GlcN6P,glucosamine-6-phosphate [2],< 1e-05 s⁻¹
A33G C34G U49A,self-cleavage kobs at 640 uM GlcN6P,glucosamine-6-phosphate [1],< 1e-05 s⁻¹
G13C G35U G38C G40U,self-cleavage kobs at 640 uM GlcN6P,glucosamine-6-phosphate [1],< 1e-05 s⁻¹
same,self-cleavage kobs at 160 uM GlcN6P,glucosamine-6-phosphate [2],< 1e-05 s⁻¹
same,self-cleavage kobs at 2500 uM GlcN6P,glucosamine-6-phosphate [4],< 1e-05 s⁻¹
G32A G35A G37U U49C U55C G62U,self-cleavage kobs at 640 uM GlcN6P,glucosamine-6-phosphate [1],< 1e-05 s⁻¹
A33G A39C G44A C71G,self-cleavage kobs at 640 uM GlcN6P,glucosamine-6-phosphate [1],< 1e-05 s⁻¹
same,self-cleavage kobs at 2500 uM GlcN6P,glucosamine-6-phosphate [4],< 1e-05 s⁻¹
U30A G62U,self-cleavage kobs at 640 uM GlcN6P,glucosamine-6-phosphate [1],< 1e-05 s⁻¹
same,self-cleavage kobs at 160 uM GlcN6P,glucosamine-6-phosphate [2],< 1e-05 s⁻¹
same,self-cleavage kobs at 10000 uM GlcN6P,glucosamine-6-phosphate [3],< 1e-05 s⁻¹
G13U U56G,self-cleavage kobs at 640 uM GlcN6P,glucosamine-6-phosphate [1],0.000172 ± 2.5e-05 s⁻¹
same,self-cleavage kobs at 160 uM GlcN6P,glucosamine-6-phosphate [2],7.12e-05 ± 2e-05 s⁻¹
same,self-cleavage kobs at 2500 uM GlcN6P,glucosamine-6-phosphate [4],0.000372 ± 6.6e-05 s⁻¹
same,self-cleavage kobs at 10000 uM GlcN6P,glucosamine-6-phosphate [3],0.000774 ± 9.3e-05 s⁻¹
G13C C16A G41A C70G,self-cleavage kobs at 640 uM GlcN6P,glucosamine-6-phosphate [1],< 1e-05 s⁻¹
G32C G38A A48C,self-cleavage kobs at 640 uM GlcN6P,glucosamine-6-phosphate [1],< 1e-05 s⁻¹
C16U C34A G51C,self-cleavage kobs at 640 uM GlcN6P,glucosamine-6-phosphate [1],< 1e-05 s⁻¹
same,self-cleavage kobs at 2500 uM GlcN6P,glucosamine-6-phosphate [4],< 1e-05 s⁻¹
U30A G32A A39G,self-cleavage kobs at 640 uM GlcN6P,glucosamine-6-phosphate [1],0.000602 ± 0.00013 s⁻¹
same,self-cleavage kobs at 160 uM GlcN6P,glucosamine-6-phosphate [2],6.92e-05 ± 2.4e-05 s⁻¹
G13C A15U A33U,self-cleavage kobs at 640 uM GlcN6P,glucosamine-6-phosphate [1],< 1e-05 s⁻¹
same,self-cleavage kobs at 10000 uM GlcN6P,glucosamine-6-phosphate [3],< 1e-05 s⁻¹
A15G C16U C68G,self-cleavage kobs at 640 uM GlcN6P,glucosamine-6-phosphate [1],8.06e-05 ± 1.8e-05 s⁻¹
same,self-cleavage kobs at 2500 uM GlcN6P,glucosamine-6-phosphate [4],8.91e-05 ± 3e-05 s⁻¹
A14G C34G G40C G41U C67G,self-cleavage kobs at 640 uM GlcN6P,glucosamine-6-phosphate [1],< 1e-05 s⁻¹
same,self-cleavage kobs at 2500 uM GlcN6P,glucosamine-6-phosphate [4],< 1e-05 s⁻¹
G13A G40A G62A,self-cleavage kobs at 640 uM GlcN6P,glucosamine-6-phosphate [1],< 1e-05 s⁻¹
same,self-cleavage kobs at 2500 uM GlcN6P,glucosamine-6-phosphate [4],< 1e-05 s⁻¹
U30C G63C,self-cleavage kobs at 640 uM GlcN6P,glucosamine-6-phosphate [1],< 1e-05 s⁻¹
same,self-cleavage kobs at 10000 uM GlcN6P,glucosamine-6-phosphate [3],< 1e-05 s⁻¹
U30G A36C,self-cleavage kobs at 640 uM GlcN6P,glucosamine-6-phosphate [1],< 1e-05 s⁻¹
same,self-cleavage kobs at 2500 uM GlcN6P,glucosamine-6-phosphate [4],< 1e-05 s⁻¹
same,self-cleavage kobs at 10000 uM GlcN6P,glucosamine-6-phosphate [3],< 1e-05 s⁻¹
U31G G44C,self-cleavage kobs at 640 uM GlcN6P,glucosamine-6-phosphate [1],< 1e-05 s⁻¹
same,self-cleavage kobs at 160 uM GlcN6P,glucosamine-6-phosphate [2],< 1e-05 s⁻¹
A15C A42G G43A,self-cleavage kobs at 640 uM GlcN6P,glucosamine-6-phosphate [1],< 1e-05 s⁻¹
A15U G35C U54G,self-cleavage kobs at 640 uM GlcN6P,glucosamine-6-phosphate [1],< 1e-05 s⁻¹
same,self-cleavage kobs at 2500 uM GlcN6P,glucosamine-6-phosphate [4],< 1e-05 s⁻¹

# — the supplement of paper PMC7125110
